# Reference: PubChem BioAssay AID602332 (National Center for Advancing Translational Sciences (NCATS), 2012)
# Where “and” joins values, the source holds several entries; their conditions need not be identical. Identical values can stand only once. About 75 (0.02%) of roughly 420,000 compounds were called active. The shares of active, inactive and inconclusive entries below differ from those in the screen. The call rests on the fitted dose curve; in most records, active means well fitted activation curve with a large enough effect; inconclusive means small, poorly fitted or top-dose-only effect; inactive means no such curve, though single readings can be large or run the other way. Where the call is inconclusive, the potency comes from a doubtful curve fit.
# Experiment: qHTS for Inducers of the Endoplasmic Reticulum Stress Response (ERSR) in Human Glioma: qHTS; further: nearly all actives have a fitted effect of over 35% in size; on activation: % of control where 0% means no effect
# Settings: U87-MG GRP78 promoter luciferase reporter, 16 h; activation: stronger effect = higher value
# In short: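 Stably transfected U87-MG glioma cells carrying a GRP78-based luciferase sensor; 16 h compound incubation. Luminescence end-point read 10 min after Bright-Glo addition at room temperature.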
# Potency means the concentration at half of the fitted maximal effect; tags describe the fitted curve by direction and shape.
SMILES,Potency,activation
CCOC(=O)C1=C(Cc2ccc(F)cc2)C(=O)c2ccccc2C1=O,"inconclusive: 28.2 µM [activator, single point]",
C[C@H](CO)N1C[C@H](C)[C@H](CN(C)C(=O)c2ccccc2)Oc2cc(Br)ccc2S1(=O)=O,"inconclusive: 50.1 µM [activator, single point]",
Cc1nnc(Sc2nc3ccccc3o2)c2ccccc12,"inconclusive: 20 µM [activator, single point]",
O=C(NCc1ccc2c(c1)OCO2)c1ccc(Cl)nc1,,inactive: -1.2%
COc1cc(C(=O)Nc2ccc(S(=O)(=O)Nc3cnc4ccccc4n3)cc2)cc(OC)c1OC,active: 31.6 µM,
CC(=O)Oc1ccc(/C=C/C(=O)CC2OC(Oc3cc(OC(C)=O)c4c(c3)O[C@@H](c3ccc(OC(C)=O)cc3)CC4=O)C(OC(C)=O)C(OC(C)=O)C2OC(C)=O)cc1 (some centres not stated),"inconclusive: 28.2 µM [activator, single point]",
CN(C)CCNc1ccc2ncn3c4ccc(O)cc4c(=O)c1c23,,inactive: -0.291%
CCCN1CCC(=O)N([C@H](CSc2ccccc2)Cc2ccccc2)CC1,,inactive: -0.244% and inactive: 2.29%
CS(=O)(=O)c1ccc(-c2cnc3c(NC=O)cc(-c4ccsc4)cn23)cc1,"inconclusive: 44.7 µM [activator, single point]",
C=CCSc1nnc(CC(OC)OC)n1-c1ccccc1,,inactive: -1.9%
CN(C)c1ccc(/C=C2\C(=O)Nc3ccccc32)cc1,"inconclusive: 0.0521 µM [activator, full curve, poor fit]",
Cc1ccc(-c2n[nH]c3c2C(c2cccs2)N(c2ccc(Cl)cc2)C3=O)cc1 (configuration not stated),"inconclusive: 12.6 µM [activator, full curve, poor fit]",
Cc1ccc(C(=O)c2cc([N+](=O)[O-])ccc2N2CCN(C)CC2)cc1,,inactive: -1.32%
COc1ccc(S(=O)(=O)Nc2cccc3cccnc23)c([N+](=O)[O-])c1,"inconclusive: 28.2 µM [activator, single point]",
Cc1cc(CC(C)CC(C)(C)C)n(O)c(=O)c1 (configuration not stated),"inconclusive: 63.1 µM [activator, single point]",
CC(O)[C@H]1CC[C@H]2[C@@H]3CC[C@H]4C[C@@H](O)CC[C@]4(C)[C@H]3C(=O)C[C@]12C (some centres not stated),,inactive: -4.22%
O=C(Cc1ccc(OCCC2CCCCC2)cc1)NO,,inactive: 2.49%
Cn1nc(C(F)(F)F)c(/C=N/OC(=O)c2ccccc2Cl)c1SCc1ccc(Cl)cc1,"inconclusive: 11.2 µM [activator, single point]",
O=C(/C=C/c1cccc(Br)c1)c1ccc2c(c1)OCO2,"inconclusive: 44.7 µM [activator, partial curve, poor fit]",
CCN(CC)CCCNC(=O)c1cc2c(-c3ccc(Cl)cc3)nn(C)c2s1,"inconclusive: 50.1 µM [activator, single point]",
COc1ccccc1C(=O)OCc1cc(=O)n2ccsc2n1,,inactive: 2.54%
CCOc1ccc(Br)cc1CNCCSc1nnnn1-c1ccccc1,active: 31.6 µM,
O=C(CSCc1ccccc1F)NCc1ccccc1,"inconclusive: 7.94 µM [activator, partial curve, poor fit]",

SMILES,Potency,activation
CC/C(=N\NC(=O)c1ccc(N2CCCC2=O)cc1)c1ccccc1,"inconclusive: 50.1 µM [activator, single point]",
O=C1OCCC1Sc1nc2ccccc2c(=O)n1Cc1ccccc1 (configuration not stated),"inconclusive: 11.2 µM [activator, partial curve, poor fit]",
CN(Cc1ccccc1)C(=O)c1ccco1,,inactive: 1.36%
CCOC(=O)C(Cc1c[nH]c2ccccc12)NC(=O)COc1ccc(Cl)c(C)c1 (configuration not stated),"inconclusive: 44.7 µM [activator, partial curve, poor fit]",
CCc1ccc(Sc2cc(C(=O)NC(C)CC)c3ccccc3n2)cc1 (configuration not stated),,inactive: -3.26%
COC(=O)C1=C(C)N(Cc2ccco2)C(=O)/C1=C\c1ccc([N+](=O)[O-])cc1,"inconclusive: 50.1 µM [activator, single point]",
CC(C)(C)OC(=O)N(CCc1ccccc1)Cc1ccccc1OCc1cccc(NC(=O)C2CCCC2)c1,,inactive: -2.57%
O=C(CCn1c(=S)[nH]c2ccccc2c1=O)NCCc1ccccc1,,inactive: 2.42%
Cc1cc(C)n(-c2nc3ccccc3c(=O)n2OCC#N)n1,"inconclusive: 50.1 µM [activator, partial curve, poor fit]",
Clc1ccccc1C(c1ccccc1)(c1ccccc1)n1ccnc1,"inconclusive: 58.5 µM [activator, partial curve, poor fit]",
Cc1cc(C)n2ncc(C(=O)NCCc3ccccc3)c2n1,,inactive: 0.0426%
O=[N+]([O-])c1ccc2nc(Cl)nc(-c3ccccc3)c2c1,,inactive: 1.64%
CCn1cnc2c(=O)oc3ccc(S(=O)(=O)Nc4ccc(OC)cc4)cc3c21,"inconclusive: 35.5 µM [activator, partial curve, poor fit]",
O=[N+]([O-])c1ccc(Oc2ccc(N=C=S)cc2)cc1,,inactive: -4%
Cc1ccc(C(=O)c2no[n+]([O-])c2C(=O)c2ccc(C)cc2)cc1,"inconclusive: 50.1 µM [activator, single point]",
Oc1ccc(/C(Cc2ccccn2)=N\Nc2ccccc2)c(O)c1,,inactive: -2.83%
CC(C)(C)C1CCc2c(sc3nc(-c4cc5ccccc5oc4=O)[nH]c(=O)c23)C1 (configuration not stated),,inactive: -2.67%
COc1ccc(/C=C/C(=O)c2c(C)nc3ccccn23)cc1,,inactive: 7.31%
COc1ccc(-c2c[n+]3c4n2CCCCC4=C(c2ccccc2)C3)cc1,,inactive: -4.54%
O=C(COC(=O)c1ccc2ccccc2c1O)NCC(F)(F)F,"inconclusive: 11.2 µM [activator, partial curve, poor fit]",
O=c1c(C=NCCCn2ccnc2)c(-c2ccccc2)[nH]n1-c1nc2ccccc2s1,,inactive: -4.01%
CC(CCc1ccccc1)NC(=O)c1ccccc1F (configuration not stated),,inactive: -2.03%
Cc1cc(C(=O)CCl)c(C)n1-c1c(C)n(C)n(-c2ccccc2)c1=O,"inconclusive: 44.7 µM [activator, partial curve, poor fit]",

SMILES,Potency,activation
COc1ccccc1C1NC(c2ccc3c(c2)OCO3)=CC(c2cc(Cl)ccc2O)N1 (configuration not stated),"inconclusive: 50.1 µM [activator, partial curve, poor fit]",
CCCCOn1c(C)c(C(=O)OCC)c2c3no[n+]([O-])c3ccc21,,inactive: -0.0138%
Cc1ccc(Sc2cc(C(=O)c3ccccc3C(=O)O)ccc2[N+](=O)[O-])cc1,"inconclusive: 28.2 µM [activator, single point]",
COc1cc(CC(=O)NC(c2ccccc2)c2ccccc2)cc(OC)c1OC,"inconclusive: 50.1 µM [activator, single point]",
COc1ccc(-c2coc3cc(O)cc(O)c3c2=O)cc1,"inconclusive: 12.6 µM [activator, single point]",
CCc1ccc(C(=O)COC(=O)C(Cc2ccccc2)NC(=O)c2ccc(Cl)cc2)cc1 (configuration not stated),"inconclusive: 31.6 µM [activator, partial curve, poor fit]",
CCN(CC)CCC(=O)Nc1cccc2c1C(=O)c1ccccc1C2=O,"inconclusive: 50.1 µM [activator, single point]",
C[C@H](NC(=O)/C(C#N)=C/c1ccc(O)c(O)c1)c1ccccc1,"inconclusive: 35.5 µM [activator, partial curve, poor fit] and inconclusive: 36.9 µM [activator, partial curve]",
O=C1/C(=C/c2ccsc2)CC/C1=C\c1cccs1,,inactive: -8.61%
CC(=NNC(=S)Nc1cccc(Cl)c1)c1ccccn1,"inconclusive: 11.2 µM [activator, single point]",
NC(=O)c1nsc(C(=O)N(Cc2cccnc2)C(C(=O)NCc2ccccc2)c2ccc(O)cc2)c1N (configuration not stated),"inconclusive: 56.2 µM [activator, single point]",
COc1cccc(-c2nc3ccccc3c(=O)o2)c1,"inconclusive: 14.1 µM [activator, partial curve, poor fit]",
O=C(CNC(=O)c1ccc(Br)o1)NNC(=O)c1ccc(Br)cc1,,inactive: -2.3%
Cc1cccc(CNC(=O)c2cnn(-c3nccc(-c4cc5ccccc5o4)n3)c2C2CC2)n1,,inactive: -1.76%
Cn1c(=O)c2c(nc(N/N=C/c3cccnc3)n2Cc2ccc(F)cc2)n(C)c1=O,"inconclusive: 50.1 µM [activator, single point]",
Cn1c(SCC(=O)Nc2ccc(Br)cc2)nc(O)cc1=O,"inconclusive: 63.1 µM [activator, single point]",
COCOc1cc(OC)ccc1C(=O)/C=C\c1ccc2c(c1)OCO2,"inconclusive: 3.98 µM [activator, single point]",
COC(=O)Cn1c(CN2CCC(Cc3ccccc3)CC2)nc2c1c(=O)n(C)c(=O)n2C,,inactive: -2.55%
Cc1[nH]n(C(N)=S)c(=O)c1N=Nc1cccc(C(F)(F)F)c1,"inconclusive: 2.24 µM [activator, partial curve, poor fit]",
CCc1ccccc1NC(=O)C1CCCN1C(=O)Nc1ccc(C)cc1 (configuration not stated),,inactive: -4.35%
O=C(Nc1ccccn1)c1ccc([N+](=O)[O-])o1,"inconclusive: 14.1 µM [activator, full curve, poor fit]",
